In PMC4336329 (PLoS ONE, 2015):
The campaign covered roughly 310,000 compounds. About 2,200 (0.71%) showed an effect of 50% or more. Effects have a minus sign here. The list shows a part of the results.

The molecules below were run against human ether-à-go-go-related gene (hERG) potassium channel (human, UniProt Q12809) (assay: primary screen, population patch clamp on CHO cells stably expressing hERG).
Chain of human ether-à-go-go-related gene (hERG) potassium channel (Q12809 whole entry, looked up): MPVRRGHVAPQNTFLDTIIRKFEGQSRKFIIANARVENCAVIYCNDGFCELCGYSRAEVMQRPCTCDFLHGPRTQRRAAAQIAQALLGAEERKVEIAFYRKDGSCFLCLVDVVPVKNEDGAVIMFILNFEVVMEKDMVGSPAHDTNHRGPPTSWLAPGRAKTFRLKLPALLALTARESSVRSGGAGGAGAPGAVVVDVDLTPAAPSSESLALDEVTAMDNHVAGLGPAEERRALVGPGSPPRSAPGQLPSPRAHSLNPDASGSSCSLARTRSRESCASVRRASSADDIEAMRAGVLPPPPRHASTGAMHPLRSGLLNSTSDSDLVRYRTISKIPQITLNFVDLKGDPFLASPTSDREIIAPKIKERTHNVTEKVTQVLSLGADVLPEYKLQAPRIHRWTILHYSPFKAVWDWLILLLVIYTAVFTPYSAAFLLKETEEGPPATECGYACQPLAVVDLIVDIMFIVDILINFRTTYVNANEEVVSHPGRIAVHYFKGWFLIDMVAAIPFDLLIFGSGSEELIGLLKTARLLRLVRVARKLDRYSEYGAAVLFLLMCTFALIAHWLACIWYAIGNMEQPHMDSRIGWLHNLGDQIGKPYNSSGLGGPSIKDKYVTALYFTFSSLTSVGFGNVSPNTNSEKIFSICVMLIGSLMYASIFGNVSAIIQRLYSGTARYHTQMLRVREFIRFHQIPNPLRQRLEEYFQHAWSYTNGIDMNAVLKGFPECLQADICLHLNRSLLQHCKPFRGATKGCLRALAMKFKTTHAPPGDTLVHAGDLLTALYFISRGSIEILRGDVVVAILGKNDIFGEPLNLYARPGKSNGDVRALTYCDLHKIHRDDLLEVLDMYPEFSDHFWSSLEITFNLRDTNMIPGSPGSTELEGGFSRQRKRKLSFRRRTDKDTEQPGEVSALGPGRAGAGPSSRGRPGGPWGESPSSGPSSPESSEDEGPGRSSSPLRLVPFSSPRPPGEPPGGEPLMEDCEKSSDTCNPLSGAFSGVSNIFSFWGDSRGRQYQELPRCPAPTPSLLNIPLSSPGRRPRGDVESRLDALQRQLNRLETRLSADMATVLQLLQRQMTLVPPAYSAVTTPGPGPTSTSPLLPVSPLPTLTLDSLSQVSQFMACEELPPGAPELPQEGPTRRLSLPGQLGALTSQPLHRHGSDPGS

Structure (SMILES)	hERG current change (%, negative = inhibition) at 1uM [%]
COc1ccc(Cc2nc(-c3ccc(Br)cc3)no2)cc1	1.91
Cc1nnc(SCC(=O)Nc2ccc(N(C)C)cc2)n(N)c1=O	11.9
CCN(CC)S(=O)(=O)c1ccc(N2CCOCC2)c(NS(=O)(=O)c2cc(C(C)(C)C)ccc2C)c1	6.68
COCCN(Cc1ccccc1)C(=O)c1cc(S(=O)(=O)N2CCCCCC2)ccc1OC	2.16
CCOC(=O)c1cccc(NC(=O)Cn2cc3c(n2)CCC(C)C3)c1 (stereo not drawn)	11.2
Cc1nc2ccccc2nc1SCC(=O)N1CCC(C)CC1	7.4
O=C(O)c1ccc(-c2cccc([N+](=O)[O-])c2)o1	11.9
O=C(NCCO)C(=O)NCC1OCCCN1S(=O)(=O)c1cc(F)ccc1F (stereo not drawn)	11.1
O=C(Oc1ccc([N+](=O)[O-])cc1)c1cc(-c2ccccc2)nc2ccccc12	13.1
Cc1nn(Cc2ccccc2)c(C)c1NC(=O)CSc1nc2c(c(C(F)(F)F)n1)CCc1ccccc1-2	2.11
Cc1ccnc2nc(C(=O)OCCOc3ccc(F)cc3)nn12	-4.64
COc1ccc(-n2c(O)c(C=NCCCn3ccnc3)c(=O)[nH]c2=O)cc1	11.7
COc1ccc(S(=O)(=O)NCC(c2ccc(C)cc2)N2CCN(C)CC2)cc1 (stereo not drawn)	-20.1
CCOC(=O)c1c(-c2ccc(C)o2)csc1NC(=O)CSc1nncs1	-2.98
CNC(=O)c1cccc(NC(=O)c2ccccc2OCc2ccccc2)c1	5.8
CC(=O)Nc1ccc(NC=C(C#N)C#N)cc1	4.23
Cc1ccc(OCCC(=O)OCC(=O)N2CCN(S(=O)(=O)c3ccc(Cl)cc3)CC2)cc1	2.59
CCC(=O)N1c2ccccc2NC2=C(C(=O)CC(C)(C)C2)C1c1cccnc1 (stereo not drawn)	11.4
CC(=O)Nc1c(C(=O)C2CC2)oc2ccccc12	-5.66
O=C(OCC(=O)N(C1CCCCC1)C1CCCCC1)c1ccc(Cl)nc1	11.2
CCN(CC)C1=CC(=[N+]2CCCC2)CC(C)(C)C1.[I-]	3.4
Cc1c(/C=N\NC(=O)c2ccc([N+](=O)[O-])cc2)cnn1C	4.79
CCn1c(SCC(=O)N=Nc2c(O)[nH]c3ccccc23)nnc1-c1ccc(C(C)(C)C)cc1	-0.159
COc1ccc(N2CCN(CC(=O)Nc3ccc(C)cc3)CC2)cc1	8.59
Cc1ccccc1-n1cnnc1SCC(=O)N1CCN(c2ccccc2)CC1	-22.3
CCOC(=O)C1=C(C)NC2=C(C(=O)CCC2)C1c1cc(OC)ccc1OC (stereo not drawn)	-5
CC(=O)N1c2ccc(S(=O)(=O)N3CCCCC3)cc2CC1C(=O)Nc1ccc(F)cc1C (stereo not drawn)	13

Structure (SMILES)	hERG current change (%, negative = inhibition) at 1uM [%]
CCn1c(SCC(=O)N/N=C/c2cc(OC)c(O)c(OC)c2)nc2ccccc21	-0.207
c1cnc(N2CCN(Cc3ccc4c(c3)OCO4)CC2)cn1	2.96
OCCCn1c(C2CCCN2c2nc(-c3ccc(Cl)cc3)cs2)nc2cc(Cl)c(N3CCCCC3)cc21 (stereo not drawn)	5.88
Cc1ccccc1OCC(=O)NNC(=O)c1cc(S(=O)(=O)N2CCOCC2)ccc1N1CCCC1	13.6
Cc1ccc(S(=O)(=O)NC(C(=O)OCC(=O)NC2CCS(=O)(=O)C2)C(C)C)cc1 (stereo not drawn)	8.41
CNC(=O)COc1coc(CN2CCN(c3ccccc3F)CC2)cc1=O	12.6
C#CCCOC(=O)N1C2=NC(C(=O)OC)=C(C(=O)OC)[C@@H]3N(CC=C)c4ccccc4[C@]23C[C@H]1C(=O)OC	4.02
COc1cc(C2Nc3cc(Cl)c(S(N)(=O)=O)cc3S(=O)(=O)N2)ccc1OCc1ccccc1 (stereo not drawn)	5.51
CCOC(=O)c1ccc(N2CCCCC2)c(NS(=O)(=O)c2ccc(C)cc2)c1	14.2
Nc1c(C2=NCCO2)nnn1Cc1ccccc1	18.3
COc1cc(/C=C(/NC(=O)c2ccccc2)C(=O)Nc2cccc(O)c2)c([N+](=O)[O-])cc1OC	9.87
CCCOC(=O)Nc1nc(-c2ccc(C)cc2)c(C)s1	14
O=C(Nc1cccc(NC(=O)c2cncc(Br)c2)c1)c1cncc(Br)c1	17.4
COc1ccc(NC(=O)CS(=O)(=O)Cc2ccccc2)c([N+](=O)[O-])c1	-16.5
CCCc1ccc2oc(C(=O)N3CCC(COC)C3)c(C)c2c1 (stereo not drawn)	14.4
CC1CC(C)(C)NC(=S)N1CCC(=O)N1CCN(c2ccccc2)CC1 (stereo not drawn)	9.01
CCN(CC)CCCN(C(=O)c1ccc(OC)cc1)c1nc(-c2ccc(OC)cc2)cs1	-15.5
CCN1CCN(c2c(/C=C3\SC(=S)N(Cc4ccco4)C3=O)c(C)c(C#N)c(=O)n2C)CC1	-6.7
Cc1ccccc1-c1cc(-c2ccccc2O)n[nH]1	11.1
Cc1ccc(OCC(=O)Nc2ccccc2C(=O)N2CCCCC2)cc1	4.35
CC(=O)c1cccc(NC(=O)C2CCCN(S(C)(=O)=O)C2)c1 (stereo not drawn)	10.4
Cc1cccc(N2C(=O)C3C4C=CC(C5CC45)C3C2=O)n1 (stereo not drawn)	15
C/C(=N\OCc1ccccc1)c1c(O)cc(C(C)C)n(-c2ccccc2)c1=O	3.4
COCCNC(=O)COc1cccc2c1OC(C)(C)C2	4.7
COc1ccc(-n2nnnc2/C=C\Nc2ccccc2C(=O)c2ccccc2)cc1	11.3
COc1ccc(C2CC(C(F)(F)F)n3nc(CO)c(Cl)c3N2)cc1OC (stereo not drawn)	11.9
COc1ccc(C(=O)Nc2cccnc2)cc1OC	17.8
